We go through 71 molecules from PubChem BioAssay AID488969 (Vanderbilt High Throughput Screening Facility, 2010).

The full ranking holds about 110,000 compounds; the median of “z-score” is about -0.1, and the highest 2% start at about 2. This is one part of the list.

In the assay the target is Metabotropic glutamate receptor 8 (Rattus norvegicus) (UniProt P70579). Briefly: rat mGluR8 modulators via GIRK flux, primary screen, cell-based, thallium flux, HTS (AID 488969). As to conditions: HEK293 rat mGluR8, GIRK (G protein-gated inwardly rectifying potassium channel) thallium flux, FluoZin2; at 10 µM; stronger effect = higher value; submaximal glutamate (EC20) added with thallium.
Chain of UniProt P70579 (P70579 whole entry, looked up): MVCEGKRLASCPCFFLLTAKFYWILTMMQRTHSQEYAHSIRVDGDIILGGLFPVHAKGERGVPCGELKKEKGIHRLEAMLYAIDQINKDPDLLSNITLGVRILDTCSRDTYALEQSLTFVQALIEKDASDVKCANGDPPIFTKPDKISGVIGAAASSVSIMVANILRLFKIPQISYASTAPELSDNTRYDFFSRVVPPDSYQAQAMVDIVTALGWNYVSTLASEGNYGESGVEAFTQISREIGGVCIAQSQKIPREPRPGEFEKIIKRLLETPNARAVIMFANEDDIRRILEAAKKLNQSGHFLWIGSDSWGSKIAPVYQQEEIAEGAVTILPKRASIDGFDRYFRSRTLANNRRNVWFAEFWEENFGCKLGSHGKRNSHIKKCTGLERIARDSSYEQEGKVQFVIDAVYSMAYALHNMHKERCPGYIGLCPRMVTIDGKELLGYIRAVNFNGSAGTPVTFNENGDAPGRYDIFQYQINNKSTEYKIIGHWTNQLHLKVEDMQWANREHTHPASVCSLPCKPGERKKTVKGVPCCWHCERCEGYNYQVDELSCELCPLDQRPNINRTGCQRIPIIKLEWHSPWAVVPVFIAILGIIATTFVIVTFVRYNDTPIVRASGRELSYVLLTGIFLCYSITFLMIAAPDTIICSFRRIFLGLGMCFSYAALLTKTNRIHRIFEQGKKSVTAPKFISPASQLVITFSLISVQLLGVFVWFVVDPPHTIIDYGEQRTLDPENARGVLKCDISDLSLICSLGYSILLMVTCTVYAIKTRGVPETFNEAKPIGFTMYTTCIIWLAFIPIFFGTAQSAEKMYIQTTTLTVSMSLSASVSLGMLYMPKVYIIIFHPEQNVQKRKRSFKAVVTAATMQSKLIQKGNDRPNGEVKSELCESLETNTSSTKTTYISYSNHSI
For the molecule `COc1ccc(-n2nc(N)c3c(=O)oc(N(C)C)nc32)cc1`, the z-score was -0.0834.

With `Cc1noc(C)c1C(=O)NC1CCCc2ccccc21` (stereo unspecified), the z-score is 0.0903.

`O=C(Cn1[nH]c(=O)c2ccccc2c1=O)NCc1cccnc1`: the z-score was -0.377.

`CCN(CC)c1ccc(NC(=O)CN2CCN(S(=O)(=O)c3cc(Cl)ccc3OC)CC2)cc1` showed a z-score of -0.269.

Take `Cc1ccc(N(CC(=O)Nc2ccccc2C(=O)N2CCOCC2)S(C)(=O)=O)cc1`: the z-score was determined as 0.00258.

In the case of `COc1cccc(C2c3c(-c4ccccc4)n[nH]c3C(=O)N2c2ccc(C(=O)O)cc2)c1` (stereo unspecified), the z-score was -0.182.

Regarding `N#Cc1c(NC(=O)CCn2cnc3ccccc3c2=O)oc(-c2ccccc2)c1-c1ccccc1`, the z-score is -0.279.

Molecule `COc1ccc(C)cc1S(=O)(=O)N1CCCCC1` registered a z-score of -0.208.

Molecule `COc1ccccc1NC(=O)CN1CCN(c2ccccc2F)CC1` gave a z-score of -0.346.

`CN(CC(=O)O/N=C(\N)c1cccc([N+](=O)[O-])c1)S(=O)(=O)c1ccccc1`: the z-score is -0.668.

Take `O=C(CN1CCC2(CC1)OCCO2)c1c[nH]c2ccccc12`: the z-score was determined as 0.393.

`CC(CCc1ccc(O)cc1)N(C)CCc1ccccc1` (stereo unspecified) registered a z-score of 0.807.

`Cc1ccccc1C(=O)Nc1cccc(N)c1` yielded a z-score of 0.142.

Consider `Cc1ccc(NC(=O)COc2ccc(S(=O)(=O)N3CCOCC3)cc2)cc1`, for which the z-score is -0.358.

As to `Cc1[nH]c2ccccc2c1C(=O)CN1CCCCC1CCO` (stereo unspecified), the z-score is -0.607.

`Fc1nc(N2CCCC2)c(F)c(Oc2ccccc2Oc2c(F)c(F)nc(N3CCCC3)c2F)c1F` had a z-score of -0.167.

As for `CC(C)CC(=O)N1CCN(S(=O)(=O)c2ccc3ccccc3c2)CC1`, the z-score is -1.99.

Take `Cn1c(=O)n(C)c2cc(NC(=O)c3cc4ccccc4o3)ccc21`: the z-score was -0.265.

As for `Cc1cccc(NC(=O)CSc2nc3ccccc3c3nc(CCc4c(C)n[nH]c4C)nn23)c1`, the z-score was 0.29.

In turn, `Cn1c(=O)[nH]c(=O)c2c1nc(SCCN1CCOCC1)n2CCCc1ccccc1` gave a z-score of 0.05.

In turn, `Cc1c(C#N)c(N=CN(C)C)c(C(=O)c2ccc(Br)cc2)n1-c1ccccc1` yielded a z-score of 0.909.

For `COC(=O)c1cc(COC(=O)c2cccnc2SC)oc1C`, the z-score was -0.0574.

As for `COc1ccc(C(=O)NCCCn2ccnc2)cc1`, the z-score came out at 0.238.

Molecule `CC(C)(C)n1nnnc1C(c1ccc(F)cc1)N1CCN(Cc2ccc3c(c2)OCO3)CC1` (stereo unspecified) returned a z-score of -0.285.

Turning to `CC(C)CCN1C(=O)c2ccc(-c3nc4ccccc4c(=O)o3)cc2C1=O`, the z-score is -0.897.

Consider `COc1cccc(C(=O)Oc2c(CN3CCOCC3)cc(Cl)c3cccnc23)c1`, for which the z-score was -0.276.

Turning to `Cc1ccc(C)c(N2CCN(C(=O)Cn3c(=O)[nH]c4ccsc4c3=O)CC2)c1`, the z-score stood at 0.361.

For `CC1(CC(=O)O)C(=O)N=C2C=CC=CN21` (stereo unspecified), the z-score came to 0.954.

In the case of `CCn1c(SCC(=O)Nc2nccs2)nnc1-c1ccc(C)cc1`, the z-score was -0.755.

`COc1ccccc1-c1cc(C(=O)NCCc2ccccc2)no1` showed a z-score of 0.025.

In turn, `N/C(=N\OC(=O)c1ccccc1Cl)c1ccccc1` showed a z-score of -0.0875.

`CC(C)c1nnc(NC(=O)C2CCCCC2)s1`: the z-score is -0.261.

Molecule `CC(c1nnc(SCC(=O)NC(=O)NCc2ccco2)n1-c1ccc(Cl)cc1)N(C)C` (stereo unspecified) yielded a z-score of 0.264.

For the molecule `CN(C)C(=O)COC(=O)[C@H](Cc1ccccc1)NC(=O)c1ccco1`, the z-score is 0.0766.

Turning to `Cc1ccc(NC(=O)c2ccccc2F)nc1`, the z-score worked out at 0.244.

`COC(=O)COc1ccc(S(=O)(=O)Nc2ccc3c(c2)OCCO3)cc1Cl` returned a z-score of -0.523.

Molecule `O=C(NCCN1CCOCC1)c1ccc2c(c1)ncn2C1CCCCC1` returned a z-score of -0.67.

The molecule `C=CCn1c(CNc2ccc(C)cc2)nnc1SCC(=O)N/N=C/c1ccc(O)cc1` registered a z-score of -0.147.

In turn, `Cc1ccc(NC(=S)Nc2ccc3nc(-c4ccccn4)c(-c4ccccn4)nc3c2)cc1C` yielded a z-score of -0.183.

With `CCN(CC)CCNC(=O)Cn1c(-c2ccccn2)nc2ccccc21`, the z-score is -1.21.

Regarding `C=CCNC(=S)Nc1ccccc1`, the z-score came out at 0.552.

As to `CC1CCCCN1C(=O)Cn1cc(C#N)c2ccccc21` (stereo unspecified), the z-score was -0.0675.

For the molecule `CC1CCC(NC(=O)Cn2c3c(c(-c4ccccc4Cl)cc2=O)CCC3)CC1` (stereo unspecified), the z-score was -0.274.

Turning to `CN(C)S(=O)(=O)c1ccc(C(=O)Nc2ccccc2C(=O)O)cc1`, the z-score was -0.317.

For `COc1ccccc1NC1=NCC(=O)N1Cc1ccccc1`, the z-score was -0.136.

Consider `COc1ccc(C2C3=C(Nc4ncnn42)c2ccccc2CC3)cc1OC` (stereo unspecified), for which the z-score was -2.34.

`O=C(NNC(=O)c1sc2cccc(Cl)c2c1Cl)NC1CCCCC1`: the z-score was found to be 0.896.

As for `N#Cc1sc2nc3c(c(-c4cccnc4)c2c1N)CCC3`, the z-score was -0.553.

Consider `O=C(CCN1C(=O)c2cccc3cccc(c23)C1=O)N1CCN(Cc2ccc3c(c2)OCO3)CC1`, for which the z-score is 0.0513.

In the case of `Cc1ccc(OCC(=O)Nn2cnc3ccccc32)cc1`, the z-score amounted to 0.228.

`CCOC(=O)CC1=NN(c2ccccc2)C(=O)/C1=C\c1ccc(OC)cc1OC`: the z-score is 0.064.

Regarding `CC(NC(=O)c1cc(-c2ccc3c(c2)OCO3)nc2ccccc12)C(C)(C)C` (stereo unspecified), the z-score is -0.477.

For `N#Cc1ccccc1NC(=O)COC(=O)c1ccc(S(=O)(=O)N2CCCC2)cc1`, the z-score was -1.

With `CCOC(=O)c1sc(NC(=O)CSc2nncs2)c(C(=O)OCC)c1C`, the z-score is 0.994.

In the case of `Clc1ccc(COc2ccccn2)c(Cl)c1`, the z-score was -0.186.

`CCOC(=O)c1nn(-c2ccc(F)cc2)c2nc(CC(C)C)c(C#N)c(=O)n12`: the z-score was -0.218.

For `O=C1c2cccnc2C(Nc2ccc(S(=O)(=O)N3CCCCCC3)cc2)N1Cc1ccccc1` (stereo unspecified), the z-score was found to be 1.19.

As to `Cc1onc(-c2c(Cl)cccc2Cl)c1C(=O)NCCCN1CCOCC1`, the z-score is -0.322.

Molecule `CCOCCOC(=O)c1cccc(NC(=O)OCC)c1` came in with a z-score of 0.0997.

Turning to `O=C(CCCc1ccccc1)NCc1cn2ccsc2n1`, the z-score is -0.396.

Turning to `COC(=O)[C@H](C)NC(=O)NC1CCN(Cc2ccccc2)CC1`, the z-score was 0.292.

Regarding `CCC(C)Sc1nnc(Cc2cc(=O)[nH]c(=O)[nH]2)n1-c1ccc(F)cc1` (stereo unspecified), the z-score was -0.203.

For the molecule `O=C(O)CCC(=O)N1CCN(c2cccc(Cl)c2)CC1`, the z-score was found to be 0.125.

On to `Cc1cc(=O)oc2ccc(OCC(=O)O)cc12`, for which the z-score is -0.48.

In turn, `O=C(NCc1ccc2c(c1)OCO2)c1ccc2c(c1)C(=O)N(Cc1cccnc1)C2=O` had a z-score of -0.239.

With `Cc1ccn2c(NC3CCCCC3)c(C(C)C)nc2c1`, the z-score was found to be 2.52.

On to `O=C(Nc1ccc2c(c1)OCO2)c1cnc2n(c1=O)CCS2`, for which the z-score is -0.0822.

Take `CC(C)(C)C(=O)Nc1c2c(nc3c1CCC3)CCCC2`: the z-score came out at 1.1.

Regarding `Cn1c(SCC(=O)Nc2ccc(N3CCOCC3)c(Cl)c2)nnc1-c1ccccc1`, the z-score is -0.0676.

The molecule `COC(=O)c1ccc(NC(=S)N2CCN(Cc3cccc(C)c3)CC2)cc1` gave a z-score of -0.381.

The molecule `O=C1C(c2ccccc2)SC(=Nc2ccccc2)N1S(=O)(=O)c1ccccc1` (stereo unspecified) showed a z-score of -0.117.
